Single values of this set are uncertain.
experiment: amyloid nucleation score relative to library mode (yeast Sup35 reporter selection) (log enrichment difference); higher = more amyloid nucleation; sequences are the first 22 residues of the Bri2 peptide extended by up to 12 random residues; conditions: random library (experiment): 1;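 active = nucleation score significantly above 0 at FDR 0.05; inactive = not significantly above 0 or absent from output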
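Also: [psi-pin-] Saccharomyces cerevisiae expressing SupN fusions, induced by 100 µM Cu2SO4, selected 7 d at 30 °C without adenine and uracil, scored by deep sequencing of output versus input.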

| Sequence | amyloid nucleation score |
| --- | --- |
| EASNCFAIRHFENKFAVETLICWSFAAGVVRRQA | inactive |
| EASNCFAIRHFENKFAVETLICEARGTDRRAWQR | inactive |
| EASNCFAIRHFENKFAVETLICHWSTLEGTGHGG | 0.636 |
| EASNCFAIRHFENKFAVETLICYRMRHIFESCGA | 4.47 |
| EASNCFAIRHFENKFAVETLICLACSNEGLWTAV | 7.83 |
| EASNCFAIRHFENKFAVETLICVWEALLLVNLAR | inactive |
| EASNCFAIRHFENKFAVETLICAHVYSV | inactive |
| EASNCFAIRHFENKFAVETLICVFLRYITGVANA | 1.62 |
| EASNCFAIRHFENKFAVETLICTGVRRQPAWQVG | inactive |
| EASNCFAIRHFENKFAVETLICQTWDNMGWRLVR | -0.137 |
| EASNCFAIRHFENKFAVETLICCV | 4.93 |
| EASNCFAIRHFENKFAVETLICANWRVGYFYCGM | 1.36 |
| EASNCFAIRHFENKFAVETLICRLKTGVTGIMCH | inactive |
| EASNCFAIRHFENKFAVETLICEFPSSPSQWMRG | 2.95 |
| EASNCFAIRHFENKFAVETLICNNV | inactive |
| EASNCFAIRHFENKFAVETLICACGVHMKRGKQG | 6.13 |
| EASNCFAIRHFENKFAVETLICCTNLFNRTKLPF | 5.83 |
| EASNCFAIRHFENKFAVETLICYGMWDWSLMSNL | inactive |
| EASNCFAIRHFENKFAVETLICFSIITHRSML | 5.27 |
| EASNCFAIRHFENKFAVETLICVVLWGAACKSTG | inactive |
| EASNCFAIRHFENKFAVETLICIDKRVVSCTLFR | inactive |
| EASNCFAIRHFENKFAVETLICPSASEMYSGFAM | 0.0198 |
| EASNCFAIRHFENKFAVETLICFGSALN | 7.37 |
| EASNCFAIRHFENKFAVETLICYSSRTLNRNDTR | 4.09 |
| EASNCFAIRHFENKFAVETLICKAVTET | inactive |
| EASNCFAIRHFENKFAVETLICILHHNLSGSSLR | 0.655 |
| EASNCFAIRHFENKFAVETLICCGSSGSGWRTRR | 8.02 |

| Sequence | amyloid nucleation score |
| --- | --- |
| EASNCFAIRHFENKFAVETLICCTMVVQLMLARS | 0.655 |
| EASNCFAIRHFENKFAVETLICTVCYRPLRMLEV | inactive |
| EASNCFAIRHFENKFAVETLICDGGVVGLWDAWR | inactive |
| EASNCFAIRHFENKFAVETLICVALRYPR | inactive |
| EASNCFAIRHFENKFAVETLICVFVRE | 0.664 |
| EASNCFAIRHFENKFAVETLICCLRVTLRYDCCC | inactive |
| EASNCFAIRHFENKFAVETLICTRSRYWQILVSL | -0.0572 |
| EASNCFAIRHFENKFAVETLICMMISNNQTEIGR | 1.37 |
| EASNCFAIRHFENKFAVETLICCYLY | 4.76 |
| EASNCFAIRHFENKFAVETLICVEWLPSCGSHSR | 1.72 |
| EASNCFAIRHFENKFAVETLICIRSASVEAEAVR | inactive |
| EASNCFAIRHFENKFAVETLICAYRWATGLVRR | inactive |
| EASNCFAIRHFENKFAVETLICRGTAFLNSMHGG | 3.47 |
| EASNCFAIRHFENKFAVETLICNGSCSVPHGGKQ | 3.02 |
| EASNCFAIRHFENKFAVETLICWEYTCWRVKRYA | 0.796 |
| EASNCFAIRHFENKFAVETLICDWHVRWGVAKKR | inactive |
| EASNCFAIRHFENKFAVETLICFQNHHYLPWG | 4.77 |
| EASNCFAIRHFENKFAVETLICWPSYQMQ | 5.52 |
| EASNCFAIRHFENKFAVETLICNNACSCSGSVAQ | 8.68 |
| EASNCFAIRHFENKFAVETLICVVKCCFWLRCWG | inactive |
| EASNCFAIRHFENKFAVETLICVQGSANYSCMFS | 7.01 |
| EASNCFAIRHFENKFAVETLICLAFWSLLVDASD | inactive |
| EASNCFAIRHFENKFAVETLICVCQWPIFMFWVY | inactive |
| EASNCFAIRHFENKFAVETLICFNMLATRSAA | inactive |
| EASNCFAIRHFENKFAVETLICLSKHSNRHEALR | inactive |
| EASNCFAIRHFENKFAVETLICFVVVVKGYCWRE | inactive |
| EASNCFAIRHFENKFAVETLICFCLVTLLLDVVQ | inactive |

same assay, conditions: random library (experiment): 2

| Sequence | amyloid nucleation score |
| --- | --- |
| EASNCFAIRHFENKFAVETLICVNRWHSPYIRLF | inactive |
| EASNCFAIRHFENKFAVETLICKNLKNTLCPSS | inactive |
| EASNCFAIRHFENKFAVETLICYTGPWKTDGLKY | 2.83 |
| EASNCFAIRHFENKFAVETLICLTDFWD | inactive |
| EASNCFAIRHFENKFAVETLICRVG | inactive |
| EASNCFAIRHFENKFAVETLICTTLRYLYSQKLS | inactive |
| EASNCFAIRHFENKFAVETLICMDSICNWDYIMH | 3.63 |
| EASNCFAIRHFENKFAVETLICKEIVYCRWAHQE | 1.18 |
| EASNCFAIRHFENKFAVETLICRACSNELRPGAR | inactive |
| EASNCFAIRHFENKFAVETLICYVDSCLIEGVYY | 6.16 |
| EASNCFAIRHFENKFAVETLICYLHMVFLPGRCR | inactive |
| EASNCFAIRHFENKFAVETLICFETGTKAVKSDD | 0.205 |
| EASNCFAIRHFENKFAVETLICPWGCNSDMESWE | 6.17 |
| EASNCFAIRHFENKFAVETLICNRQGNQEDTGSN | inactive |
| EASNCFAIRHFENKFAVETLICLFFSNFINAYSV | inactive |
| EASNCFAIRHFENKFAVETLICAHLLYIP | inactive |
| EASNCFAIRHFENKFAVETLICINNLRWVLTCMW | inactive |

| Sequence | amyloid nucleation score |
| --- | --- |
| EASNCFAIRHFENKFAVETLICYGDVYTFLLLMG | 4.25 |
| EASNCFAIRHFENKFAVETLICYSFLYRASCI | 3.49 |
| EASNCFAIRHFENKFAVETLICILMVHLPNCMES | inactive |
| EASNCFAIRHFENKFAVETLICIKWVYKLNNVWG | 0.533 |
| EASNCFAIRHFENKFAVETLICIILIYRGNRMCT | inactive |
| EASNCFAIRHFENKFAVETLICDIGGLKFVYWNR | inactive |
| EASNCFAIRHFENKFAVETLICMLLIVHDDSRGM | inactive |
| EASNCFAIRHFENKFAVETLICPVCLGLWSGSWD | 6.14 |
| EASNCFAIRHFENKFAVETLICALGLSSAFTCKQ | inactive |
| EASNCFAIRHFENKFAVETLICTISSIYSDEFKG | 0.41 |
| EASNCFAIRHFENKFAVETLICGLRKFFDCEFGE | 3.01 |
| EASNCFAIRHFENKFAVETLICYAVGWCSAASPT | 3.02 |
| EASNCFAIRHFENKFAVETLICCRWKGVVVSEAN | 2.55 |
| EASNCFAIRHFENKFAVETLICCVMRCNVVCREE | 6.75 |
| EASNCFAIRHFENKFAVETLICFFFGYEAAFWDW | inactive |
| EASNCFAIRHFENKFAVETLICNVSVRLERER | 8.1 |

same assay, conditions: random library (experiment): 3

| Sequence | amyloid nucleation score |
| --- | --- |
| EASNCFAIRHFENKFAVETLICVMCQRYWDECAT | inactive |
| EASNCFAIRHFENKFAVETLICWWLGIAPHGGMT | inactive |
| EASNCFAIRHFENKFAVETLICTMSCYGGMSN | 3.81 |
| EASNCFAIRHFENKFAVETLICIDVSGALYRSRR | 4.91 |
| EASNCFAIRHFENKFAVETLICCCIF | 8.82 |
| EASNCFAIRHFENKFAVETLICGEQVGQRHRYAQ | inactive |
| EASNCFAIRHFENKFAVETLICDCLTFVNMCYR | 7.75 |
| EASNCFAIRHFENKFAVETLICVPLSLETVRDAG | -0.00897 |
| EASNCFAIRHFENKFAVETLICVIGLRHAFRSNV | inactive |
| EASNCFAIRHFENKFAVETLICMVRTSY | 0.765 |
| EASNCFAIRHFENKFAVETLICGLQWAMSYAIVG | inactive |
| EASNCFAIRHFENKFAVETLICHYSVCLVNLPSR | inactive |
| EASNCFAIRHFENKFAVETLICAVWDRGAESATC | inactive |
| EASNCFAIRHFENKFAVETLICRVLSLRSKSWVW | inactive |
| EASNCFAIRHFENKFAVETLICIMTQLGLVGVGS | 1.86 |
| EASNCFAIRHFENKFAVETLICIRSFLGSHGMTR | inactive |

| Sequence | amyloid nucleation score |
| --- | --- |
| EASNCFAIRHFENKFAVETLICLSFMQEDGYGAR | 6.86 |
| EASNCFAIRHFENKFAVETLICGGFCSILLVVS | inactive |
| EASNCFAIRHFENKFAVETLICTDRFVGLVRLWV | inactive |
| EASNCFAIRHFENKFAVETLICMEDGRQWSGIVR | inactive |
| EASNCFAIRHFENKFAVETLICVYGCHRAVHNAM | 5.38 |
| EASNCFAIRHFENKFAVETLICRVLRSRINRRAL | inactive |
| EASNCFAIRHFENKFAVETLICMVMKTWSKMDRS | inactive |
| EASNCFAIRHFENKFAVETLICDVTRVIVADACH | inactive |
| EASNCFAIRHFENKFAVETLICAVGEYSWICTCK | inactive |
| EASNCFAIRHFENKFAVETLICQLWLLMMLLRSR | inactive |
| EASNCFAIRHFENKFAVETLICVIWPMKLELVTG | 1.71 |
| EASNCFAIRHFENKFAVETLICAVLPQCKRVPLG | inactive |
| EASNCFAIRHFENKFAVETLICYAGLRHGFLGRQ | 5.68 |
| EASNCFAIRHFENKFAVETLICVVNRYERVARYW | 5.31 |
| EASNCFAIRHFENKFAVETLICTFVMPFQWRFAS | 5.26 |
| EASNCFAIRHFENKFAVETLICRGTRCKCESVAR | 3.22 |

Reference: the supplement of paper PMC12067230
